According to the antibiotic and cytotoxicity screens of Wong et al. (2023):
Some of the results follow.

test system: HSkMC (human skeletal muscle cells); test: cytotoxicity call (relative viability < 0.9); settings: 10 µM

Question: Which cytotoxicity call does the source give for `Cc1noc(C)c1NC(=O)N(C)C[C@@H]1OCCCC[C@H](C)Oc2ccc(NC(=O)c3ccccc3)cc2C(=O)N([C@H](C)CO)C[C@@H]1C` here?
Answer: The cytotoxicity call was “inactive”.

Question: Which cytotoxicity call does the source give for `CNC[C@@H]1OCCCC[C@H](C)Oc2ccc(NC(=O)Nc3cccc4ccccc34)cc2C(=O)N([C@@H](C)CO)C[C@@H]1C` here?
Answer: Its cytotoxicity call is “inactive”.

Question: With `O=C([O-])Cc1ccccc1Nc1c(Cl)cccc1Cl.[Na+]` as the compound, how does the cytotoxicity call read?
Answer: Its cytotoxicity call is “inactive”.

Question: `C[C@H](CO)N1C[C@H](C)[C@H](CN(C)Cc2ccc(Cl)c(Cl)c2)Oc2c(NC(=O)Nc3ccccc3)cccc2C1=O` was tested. Which cytotoxicity call did it give?
Answer: The cytotoxicity call was “inactive”.

Question: With `CN(C)c1cnccn1.O=S(=O)(O)O` as the compound, how does the cytotoxicity call read?
Answer: The cytotoxicity call was “inactive”.

Question: For `COc1cccc(S(=O)(=O)N(C)C[C@H]2Oc3cc(C4=CCCC4)ccc3S(=O)(=O)N([C@H](C)CO)C[C@H]2C)c1`, which cytotoxicity call is on record?
Answer: The cytotoxicity call was “inactive”.

Question: How did the cytotoxicity call turn out when `CC[C@@H](C)NC(=O)C1CCNCC1` was run?
Answer: Its cytotoxicity call is “inactive”.

Question: For `O=C1Nc2ccc(I)cc2C1=Cc1cc(Br)c(O)c(Br)c1`, which cytotoxicity call is on record?
Answer: The cytotoxicity call was “active”.

Question: `C[C@@H]1CN([C@@H](C)CO)C(=O)c2cc(NC(=O)Nc3ccc(C(F)(F)F)cc3)ccc2O[C@@H](C)CCCCO[C@@H]1CN(C)C(=O)CCCN(C)C` was tested. Which cytotoxicity call did it give?
Answer: Its cytotoxicity call is “inactive”.

Question: `C[C@@H]1CCCCO[C@@H](CN(C)C(=O)C2CCCCC2)[C@H](C)CN([C@H](C)CO)C(=O)c2cc(NC(=O)Cc3ccccc3)ccc2O1` was tested. Which cytotoxicity call did it give?
Answer: Its cytotoxicity call is “inactive”.

Question: How did the cytotoxicity call turn out when `C[C@@H]1CN([C@H](C)CO)C(=O)c2cc(NC(=O)c3ccncc3)ccc2O[C@@H]1CN(C)S(=O)(=O)c1ccc(F)cc1` was run?
Answer: The cytotoxicity call was “inactive”.

Question: How did the cytotoxicity call turn out when `CC(C)CC#Cc1ccc2c(c1)O[C@H](CN(C)C(=O)Cc1cccnc1)[C@H](C)CN([C@@H](C)CO)S2(=O)=O` was run?
Answer: The cytotoxicity call was “inactive”.

Question: For `Cc1noc(C)c1NC(=O)Nc1ccc2c(c1)C(=O)N([C@@H](C)CO)C[C@@H](C)[C@@H](CN(C)S(=O)(=O)c1cccs1)OCCCC[C@H](C)O2`, which cytotoxicity call is on record?
Answer: The cytotoxicity call was “inactive”.

Question: Which cytotoxicity call does the source give for `O=C(CCCCCNc1nc(=S)[nH]c2ccccc12)N1CCC(O)(c2cccc(C(F)(F)F)c2)CC1` here?
Answer: The cytotoxicity call was “inactive”.

Question: How did the cytotoxicity call turn out when `COc1ccccc1C#Cc1cnc2c(c1)C(=O)N([C@@H](C)CO)C[C@H](C)[C@H](CN(C)S(=O)(=O)c1cn(C)cn1)O2` was run?
Answer: The cytotoxicity call was “inactive”.

Question: With `Cc1ccnc2c1NC(=O)c1cccnc1N2C1CC1` as the compound, how does the cytotoxicity call read?
Answer: The cytotoxicity call was “inactive”.

Question: Which cytotoxicity call does the source give for `COc1ccc(NC(=O)Nc2ccc3c(c2)C(=O)N([C@@H](C)CO)C[C@@H](C)[C@@H](CN(C)Cc2ccc4c(c2)OCO4)OCCCC[C@H](C)O3)cc1` here?
Answer: The cytotoxicity call was “inactive”.

Question: With `C[C@H](CO)N1C[C@H](C)[C@H](CN(C)C(=O)c2ccncc2)OCCCC[C@H](C)Oc2ccc(NS(=O)(=O)c3cn(C)cn3)cc2C1=O` as the compound, how does the cytotoxicity call read?
Answer: The cytotoxicity call was “inactive”.

Question: For `C[C@@H]1CN([C@@H](C)CO)C(=O)c2cc(NC(=O)C3CCCCC3)ccc2O[C@@H]1CN(C)Cc1ccc(-c2ccccc2)cc1`, which cytotoxicity call is on record?
Answer: Its cytotoxicity call is “active”.

Question: How did the cytotoxicity call turn out when `C[C@H]1CN([C@@H](C)CO)C(=O)CCCn2nncc2CO[C@H]1CN(C)C(=O)Nc1ccc(C(C)(C)C)cc1` was run?
Answer: Its cytotoxicity call is “inactive”.

Question: How did the cytotoxicity call turn out when `CNC[C@@H]1OCCCC[C@H](C)Oc2ccc(NS(=O)(=O)c3c(C)noc3C)cc2C(=O)N([C@@H](C)CO)C[C@@H]1C` was run?
Answer: Its cytotoxicity call is “inactive”.

Question: For `C[C@@H]1CN([C@H](C)CO)C(=O)Cc2cc(NS(=O)(=O)c3cn(C)cn3)ccc2O[C@@H]1CN(C)CC1CC1`, which cytotoxicity call is on record?
Answer: Its cytotoxicity call is “inactive”.

Question: Which cytotoxicity call does the source give for `N#CCN(CC#N)C(=O)c1ccco1` here?
Answer: The cytotoxicity call was “inactive”.

Question: With `C[C@@H]1CN([C@H](C)CO)C(=O)Cc2cc(NS(=O)(=O)c3ccccc3)ccc2O[C@@H]1CN(C)S(=O)(=O)c1cccs1` as the compound, how does the cytotoxicity call read?
Answer: Its cytotoxicity call is “inactive”.

Question: How did the cytotoxicity call turn out when `C[C@@H]1CCCCO[C@@H](CN(C)S(=O)(=O)c2cn(C)cn2)[C@H](C)CN([C@@H](C)CO)C(=O)c2cc(NC(=O)Nc3cccc4ccccc34)ccc2O1` was run?
Answer: Its cytotoxicity call is “inactive”.

Question: Which cytotoxicity call does the source give for `CN1CCN(C(=O)C[C@@H]2CC[C@@H]3[C@@H](COc4ccc(NC(=O)C5CCOCC5)cc4C(=O)N3C)O2)CC1` here?
Answer: Its cytotoxicity call is “inactive”.

Question: `C[C@@H]1CN([C@H](C)CO)C(=O)c2cccc(NS(=O)(=O)c3ccccc3)c2O[C@H]1CN(C)Cc1ccncc1` was tested. Which cytotoxicity call did it give?
Answer: The cytotoxicity call was “inactive”.

Question: Which cytotoxicity call does the source give for `COc1ccc(NC(=O)N(C)C[C@H]2Oc3c(NC(=O)Nc4ccc(C(F)(F)F)cc4)cccc3C(=O)N([C@@H](C)CO)C[C@H]2C)cc1` here?
Answer: Its cytotoxicity call is “inactive”.

Question: With `C[C@H](CO)N1C[C@H](C)[C@@H](CN(C)S(=O)(=O)c2cn(C)cn2)Oc2ccc(NC(=O)Cc3cn(C)c4ccccc34)cc2CC1=O` as the compound, how does the cytotoxicity call read?
Answer: Its cytotoxicity call is “inactive”.

Question: For `CCCC#Cc1cnc2c(c1)C(=O)N([C@H](C)CO)C[C@@H](C)[C@@H](CN(C)S(=O)(=O)c1cccc(OC)c1)O2`, which cytotoxicity call is on record?
Answer: The cytotoxicity call was “inactive”.

Question: For `Cc1noc(C)c1NC(=O)Nc1ccc2c(c1)C(=O)N([C@H](C)CO)C[C@H](C)[C@@H](CN(C)C(=O)Nc1ccc(C(F)(F)F)cc1)OCCCC[C@@H](C)O2`, which cytotoxicity call is on record?
Answer: The cytotoxicity call was “inactive”.

Question: For `CCNC1CN(CCCOC)S(=O)(=O)c2sc(S(N)(=O)=O)cc21` (stereo not given), which cytotoxicity call is on record?
Answer: Its cytotoxicity call is “inactive”.

Question: Which cytotoxicity call does the source give for `C[C@@H]1CN([C@@H](C)CO)C(=O)CCCn2cc(nn2)CO[C@@H]1CN(C)C(=O)Nc1cccc(Oc2ccccn2)c1` here?
Answer: Its cytotoxicity call is “inactive”.

Question: For `COc1ccc(S(=O)(=O)N(C)C[C@@H]2OCCCC[C@H](C)Oc3ccc(NS(=O)(=O)c4cn(C)cn4)cc3C(=O)N([C@@H](C)CO)C[C@H]2C)cc1`, which cytotoxicity call is on record?
Answer: Its cytotoxicity call is “inactive”.

Question: Which cytotoxicity call does the source give for `CC(C)NC(=O)N(C)C[C@H]1Oc2ccc(NC(=O)NC3CCCCC3)cc2CC(=O)N([C@H](C)CO)C[C@@H]1C` here?
Answer: Its cytotoxicity call is “inactive”.

Question: Which cytotoxicity call does the source give for `CCCN(C)C[C@H]1OCCCC[C@@H](C)Oc2ccc(NC(=O)CCC(F)(F)F)cc2C(=O)N([C@@H](C)CO)C[C@H]1C` here?
Answer: Its cytotoxicity call is “inactive”.

Question: For `O=c1oc2cc(O)ccc2s1`, which cytotoxicity call is on record?
Answer: The cytotoxicity call was “inactive”.

Question: How did the cytotoxicity call turn out when `C[C@@H]1CN([C@H](C)CO)C(=O)Cc2cc(NS(=O)(=O)c3cn(C)cn3)ccc2O[C@H]1CN(C)Cc1ccc2c(c1)OCO2` was run?
Answer: The cytotoxicity call was “inactive”.

Question: `Cc1noc(C)c1S(=O)(=O)N(C)C[C@@H]1Oc2c(NS(=O)(=O)c3cn(C)cn3)cccc2C(=O)N([C@@H](C)CO)C[C@@H]1C` was tested. Which cytotoxicity call did it give?
Answer: The cytotoxicity call was “inactive”.

Question: For `CN(C)CCNC(=O)c1ccccn1`, which cytotoxicity call is on record?
Answer: The cytotoxicity call was “inactive”.
